# Results taken from publication PMC7819943, “Rice protein-binding microarrays: a tool to detect cis-acting elements near promoter regions in rice”.
# The list shows a part of the results.
# Molecular target: T1, OsWOX13 (Oryza sativa, UniProt Q5QMM3 1-267)
# T1 sequence: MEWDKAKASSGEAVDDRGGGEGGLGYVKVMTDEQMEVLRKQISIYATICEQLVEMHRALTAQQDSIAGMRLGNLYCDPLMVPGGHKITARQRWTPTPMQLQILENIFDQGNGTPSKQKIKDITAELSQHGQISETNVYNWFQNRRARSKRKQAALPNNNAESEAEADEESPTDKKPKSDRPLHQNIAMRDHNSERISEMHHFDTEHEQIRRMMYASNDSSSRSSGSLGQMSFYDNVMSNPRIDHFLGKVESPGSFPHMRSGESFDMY
# Test: protein-binding microarray (RPBM); PBS, 2% BSA, 51.3 ng/ul salmon testes DNA, 50 uM zinc acetate, 200 nM TF, 25 C, 1 h; high values mean tight binding
# Conditions: protein: recombinant; tags: N-terminal polyhistidine and DsRed monomer fusion (pET32a); label: CyDye5-dUTP incorporated in the synthesized complementary strand; 3' TTTTT single-stranded linker to array surface; dsDNA, one strand shown
# In short: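 Transcription factors were each fused at the N-terminus to a polyhistidine tag plus DsRed and expressed in E. coli BL21-CodonPlus before Ni–NTA purification. Binding to a double-stranded custom Agilent array was carried out with 200 nM protein at 25 °C for 1 h in PBS, 2% BSA, salmon testes DNA and 50 µM zinc acetate. The binding signal is per-feature fluorescence intensity, in arbitrary units, on an Axon 4000B scanner.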
row,Sequence,binding signal
1,GACACAAATTTAGCCGATCAGACCGTCCGCTCGCATAACTCGGAGTCACCTAGTGCAG,3300 fluorescence intensity (a.u.)
2,GCTAATTATATCGACAAGTTAAAACGAATTGAAAGATTAACGGAGTCACCTAGTGCAG,9920 fluorescence intensity (a.u.)
3,GTAATGACTGATTAATGTAGGTGCTTGAAGAGCATGAGCTCGGAGTCACCTAGTGCAG,22500 fluorescence intensity (a.u.)
4,TAAATTGCTATTATGACTTAATTATATGATTTATGCCATCCGGAGTCACCTAGTGCAG,32300 fluorescence intensity (a.u.)
5,CGCATGTTAACTTGGAATGATCGGACTCCTAACTGCAGTTCGGAGTCACCTAGTGCAG,4220 fluorescence intensity (a.u.)
6,AACAAATCAGCAATCAATCTCTGCAAGAATCCGGTACTCCCGGAGTCACCTAGTGCAG,23200 fluorescence intensity (a.u.)
7,CCTGATTAATTGGGTCGTCGTTCCATTCCCAGCCGATCGACGGAGTCACCTAGTGCAG,65200 fluorescence intensity (a.u.)
8,ATTTGACGAGACAAATTAAATCCCACAGAGTCAGCAGAGCCGGAGTCACCTAGTGCAG,26700 fluorescence intensity (a.u.)
9,CAGAAAGTAATTGGAAATACAAATCCATGGTCCCTAAATGCGGAGTCACCTAGTGCAG,24800 fluorescence intensity (a.u.)
10,GACATAGACAGTAGTGTTAATTGTAAGATGTAGTTTAGTTCGGAGTCACCTAGTGCAG,6290 ± 781 fluorescence intensity (a.u.)
11,GATTACTGTTTAACCAATGATTTCACTTTGGATTACCATACGGAGTCACCTAGTGCAG,5560 fluorescence intensity (a.u.)
12,TTATCAATTACATAGGGCTCAGGGTCTATTTATACCCGAGCGGAGTCACCTAGTGCAG,13200 fluorescence intensity (a.u.)
13,TAAAATTGAAAGTGTCAACAAAGTGAAAGGACCCGAGATGCGGAGTCACCTAGTGCAG,15800 fluorescence intensity (a.u.)
14,CACTAATTTTATTTCCGAATAAGACAAATATTAAAGTGTTCGGAGTCACCTAGTGCAG,13100 fluorescence intensity (a.u.)
15,CTAGATTAAAATCCATTGACACACATTCAAATATTTCCGGCGGAGTCACCTAGTGCAG,21600 fluorescence intensity (a.u.)
16,ATTTTAATGGATTTCTGCAAACTTTTAGTAGTAGTAGTATCGGAGTCACCTAGTGCAG,4340 fluorescence intensity (a.u.)
17,GTGGCTAATTGCACGTGCAGTTTATCATCAAGTTTTACTTCGGAGTCACCTAGTGCAG,15200 fluorescence intensity (a.u.)
18,TTCACTCTTCGCAATAATTGAATAGAAAGATAATGGGAAACGGAGTCACCTAGTGCAG,6300 fluorescence intensity (a.u.)
19,AAGATAGATTAGGGAAAACTTTTGAATATGTTCTAAAGATCGGAGTCACCTAGTGCAG,15400 fluorescence intensity (a.u.)
20,TCGGATTGGCCCAACGGATGATACTACCCAACTGTACGGACGGAGTCACCTAGTGCAG,6980 fluorescence intensity (a.u.)
21,TTCTAATCAAGCTTTCTGGTTAATTTCTCTATGAATTTAACGGAGTCACCTAGTGCAG,5250 fluorescence intensity (a.u.)

row,Sequence,binding signal
1,AAGATTGGGTATAAAATGATACATCTTAAACTGCAATGCACGGAGTCACCTAGTGCAG,11000 fluorescence intensity (a.u.)
2,GGGATTGAGGCAGAAATTATGCCGTTCTCCAGGGAGCAATCGGAGTCACCTAGTGCAG,9810 fluorescence intensity (a.u.)
3,CCTTGACACAGGCAAGATTGATGCTACAGTATAAATACGGCGGAGTCACCTAGTGCAG,25700 fluorescence intensity (a.u.)
4,CTGTCTTGACAAAATAGATTGAGCTAAACACTCTGGATAACGGAGTCACCTAGTGCAG,19400 fluorescence intensity (a.u.)
5,TCCTCAATTAATTGCTGATCCTAATGCAGAGTTTCAGGTGCGGAGTCACCTAGTGCAG,35500 fluorescence intensity (a.u.)
6,TCTCGTAATCACATCCATATGAACACATATAAACACTCGTCGGAGTCACCTAGTGCAG,4010 fluorescence intensity (a.u.)
7,GCTCAGAATATCATCTGATTAGCTGCCATCTAATCGATAACGGAGTCACCTAGTGCAG,3940 fluorescence intensity (a.u.)
8,AACCTTGCAATTGATTTGACCTCATCGTTCTTGTCCCCGTCGGAGTCACCTAGTGCAG,18100 fluorescence intensity (a.u.)
9,TAAAATTCGACAGTAATTTAAACTCACTCACTAGAAAGAGCGGAGTCACCTAGTGCAG,4260 fluorescence intensity (a.u.)
10,CCACTGATAATTTAATTTGTCGATAATAAAATAGGTTTGACGGAGTCACCTAGTGCAG,22000 fluorescence intensity (a.u.)
11,AGTATAACCACCGGGCCCCACGCGTCATCCTCCCGCGCGTCGGAGTCACCTAGTGCAG,4020 fluorescence intensity (a.u.)
12,ATATCTAATTAGTTGCTGAGAGCATATATAATGCGATTCTCGGAGTCACCTAGTGCAG,12900 fluorescence intensity (a.u.)
13,TTAACTGGAGTCGGTCAAATTGATCCATCCTTTGAACTTTCGGAGTCACCTAGTGCAG,3450 fluorescence intensity (a.u.)
14,GCTGATTGGCACAATGCCACAATGACAGGACCTGCCCGTCCGGAGTCACCTAGTGCAG,38000 fluorescence intensity (a.u.)
15,GTTCTAACTGAAACGATGATGACTGAGCAGTAGCAGACTACGGAGTCACCTAGTGCAG,7790 fluorescence intensity (a.u.)
16,GATAAATTTAGTGTTAAATCTGTAGTTTTGTAATAGTTTACGGAGTCACCTAGTGCAG,6120 fluorescence intensity (a.u.)
17,TGGAGTTGAAACATTTTGATTGGACTTTAACTGTAAGAGGCGGAGTCACCTAGTGCAG,12800 fluorescence intensity (a.u.)
18,CTTCATCAATCATAAAATAATTAAACCTAACAGGCGATCTCGGAGTCACCTAGTGCAG,35500 fluorescence intensity (a.u.)
19,TTATAAGTTAATTTTATGGATTAGCTCCTTACACCCTTAACGGAGTCACCTAGTGCAG,10000 fluorescence intensity (a.u.)
20,ATGTGACTGAAAATTTGTGTGTATATGACAGGTTGATGCGCGGAGTCACCTAGTGCAG,22800 fluorescence intensity (a.u.)
21,TTTTGATTAGAACTGTATGTCCAGCTTGTGATGTACCTAACGGAGTCACCTAGTGCAG,42100 fluorescence intensity (a.u.)
